Data on 60 molecules can be found in PubChem BioAssay AID1963576 (National Center for Advancing Translational Sciences (NCATS), 2024).

Hit rate of the full screen: of about 46,000 compounds, about 60 (0.1%) were called active. Inconclusive results (about 3%) are left out. Calls come from the whole dose curve; as a rule, active = well fitted inhibition curve with a large enough effect; inconclusive = small, poorly fitted or top-dose-only effect; inactive = no such curve, though single readings can be large or run the other way. Some of the results follow.

This assay in a line: Primary qHTS assay for Inhibitors of ovarian cancer metastasis using an organotypic tumor microenvironment (TME) model.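 For activity change, negative = inhibition: plate controls were DMSO wells for no effect and tomatine positive control wells for full effect.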 Note: nearly all actives have a fitted effect of over 65% in size. As to conditions: SKOV3ip1-GFP adhesion/invasion on 3D omental model, fluorescence; series mostly up to 45.8 µM; activity change, negative = inhibition: at the top concentration. In outline: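 Primary human omental fibroblast/mesothelial 3D culture pre-formed 48 h. SKOV3ip1-GFP cells added with compounds (0.36-46 umol/L), incubated 2 h RT/16 h 37 C, fixed; GFP cells quantified at 488/509 nm.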
Turning to `Cc1ccc(C)c(N2CCN(S(=O)(=O)c3ccc4c(c3)CCCN4C(=O)C3CCC3)CC2)c1`, the “activity change, negative = inhibition” value was inactive: 0.555%.
In the case of `COc1ccc2nc3sc(C(=O)N4CCN(c5ccc(F)cc5)CC4)cc3cc2c1`, the molecule was classed as inactive.
In the case of `Cc1ccc(CNC(=O)CN2C(=O)CSc3ccc(S(=O)(=O)N4CCCC4)cc32)cc1`, the “activity change, negative = inhibition” value was inactive: 2.74%.
Turning to `CCc1ccc(C(=O)CSc2nc(-c3ccccc3)nc3c2CCCC3)cc1`, the molecule was called inactive.
Turning to `COc1cccc(-c2nc3c(c(SCc4ccccc4Cl)n2)Cc2c(CO)cnc(C)c2O3)c1`, the “activity change, negative = inhibition” value is inactive: -8.7%.
For the molecule `CN(C)c1ccc(CNC(=O)CN2C(=O)CCn3nc(-c4cn(C)c5ccccc45)cc32)cc1`, the “activity change, negative = inhibition” value is inactive: 2.3%.
Consider `Cc1cc2oc(C(=O)Nc3sc4c(c3C(=O)NCc3ccccc3)CCCC4)cc(=O)c2cc1C`, for which the “activity change, negative = inhibition” value was inactive: -0.872%.
With `CCOC(=O)c1cc(-c2ccc(OC)cc2)n(CCC(=O)Nc2cccc(C(C)=O)c2)c1C`, the result was inactive.
For the molecule `COc1ccc(CNS(=O)(=O)c2ccc(F)c(C(=O)Nc3c(C)cc(C)cc3C)c2)cc1`, the “activity change, negative = inhibition” value is inactive: -8.28%.
The same measure, in the same setting: with `CCCN(CCC)C(=O)c1cn(CC)c2ccc(S(=O)(=O)N3CCCCC3)cc2c1=O` the figure was inactive: -7.55%; with `CCC(CC)C(=O)NCc1nc2cccnc2n1Cc1ccc(F)cc1`, inactive: -20.8%.
Same read-out and setting: with `O=C(NCCCO)C(=O)Nc1c2c(nn1-c1ccccc1)CSC2` the figure was inactive: -5.9%; with `COc1ccc(-c2noc(CN(C(=O)Cc3ccc(C)cc3)C(C)C)n2)cc1`, inactive: -19.7%; with `COCCCNC(=O)c1sc2nc(C)c(C(=O)Nc3ccc(C)cc3C)c(-c3ccc(Br)cc3)c2c1N`, inactive: 21.4%.
The same measure, in the same setting: with `CCC(C)NC(=O)CSc1nnc(-c2ccc(C)cc2)c(-c2ccc(C)cc2)n1` (stereo not given) the figure was inactive: 2.07%; with `Cc1ccc(CSCCC(=O)N2CCN(c3cc(C)ccc3C)CC2)cc1`, inactive: 0.237%; with `CCCN(CCC)C(=O)C1CCCN(c2ncnc3onc(-c4ccc(F)cc4)c23)C1` (stereo not given), inactive: 6.98%.
Regarding `Cc1ccc(C(=O)Nc2ccccc2C(=O)OCc2cc(=O)n3nc(C4CC4)sc3n2)cc1`, the “activity change, negative = inhibition” value was inactive: 0.555%.
For `COc1cc(C)ccc1OCCSc1nc2ccc(NC(=O)c3cccs3)cc2s1`, the “activity change, negative = inhibition” value was inactive: 2.25%.
Still for that read-out and setting: in the case of `Cc1ccc(CNS(=O)(=O)c2cc3c(cc2C)N(C)CCO3)cc1` it was inactive: -9.4%.
Regarding `CCc1ccc(NC(=O)CSc2nc3c(sc4ccccc43)c(=O)n2CCN(CC)CC)cc1`, the outcome was inactive.
Turning to `Cc1cn2c(=O)cc(COC(=O)c3ccccc3F)nc2s1`, the outcome was inactive.
For `O=C(CN1C(=O)C2(SCC(=O)N2c2ccccc2)c2ccccc21)NCCc1ccccc1` (stereo not given), the outcome was inactive.
As for `Cc1ccc(Cn2ccnc2SCC(=O)Nc2ccc3c(c2)OCCO3)cc1`, the “activity change, negative = inhibition” value is inactive: -4.16%.
Same read-out and setting: in the case of `COc1ccc(/C=C/C(=O)Nc2ccc(Cl)cc2Cl)cc1` it was inactive: 0.173%; in that of `CCN(CC)CCCNC(=O)C(=O)Nc1ccc2nc3n(c(=O)c2c1)CCCCC3`, inactive: 14.9%; in that of `Cc1ccc(NC(=O)c2ccc3c(c2)NC(=O)c2ccccc2S3)cc1`, inactive: -7.51%.
On to `Cc1cc(C)cc(NC(=O)CCCc2nnc3n(CC(C)C)c(=O)c4sccc4n23)c1`, for which the “activity change, negative = inhibition” value is inactive: 7.46%.
On the same count and under the same terms, with `CC(=O)Nc1cccc(NC(=O)CSc2nccn2Cc2ccco2)c1` the figure was inactive: -5.01%.
Turning to `CCOc1ccc(-c2nnc(SCC(=O)c3ccc(F)cc3)n2-c2ccccc2)cc1`, the call was inactive.
Take `Cc1ccc(S(=O)(=O)C(CNC(=O)COc2ccc(Cl)cc2)c2ccco2)cc1` (stereo not given): the “activity change, negative = inhibition” value is inactive: 21.5%.
With `Cc1ccc(CNC(=O)c2cccc(NC(=O)N3CCSc4ncccc43)c2)cc1`, the “activity change, negative = inhibition” value is inactive: 16.9%.
As for `COc1ccc(-c2cc(C(=O)Nc3sc4c(c3C(N)=O)CCC(C)C4)no2)cc1` (stereo not given), the “activity change, negative = inhibition” value is inactive: 2.41%.
Same read-out and setting: in the case of `CCOc1cc(C2CC(=O)Nc3c2c(=O)nc(SCc2cccc(Cl)c2)n3C)ccc1O` (stereo not given) it was inactive: -18.4%.
As to `O=C(Nc1cccc(Cl)c1)c1cc(S(=O)(=O)N2CCCc3ccccc32)ccc1F`, the “activity change, negative = inhibition” value was inactive: 2.57%.
Take `Cc1ccccc1CNC(=O)c1cc2cccc3c2n1CC(C)S3` (stereo not given): the “activity change, negative = inhibition” value was inactive: 6.45%.
For the molecule `Cc1ccc(NC(=O)Cn2cc(C(=O)c3ccco3)c3ccccc32)c(C)c1`, the molecule was classed as inactive.
Regarding `COc1cccc(OCc2cc(=O)n3cc(C)sc3n2)c1`, the call was inactive.
With `CC(=O)Nc1ccc(NC(=O)c2nc(SCc3ccccc3C)ncc2Cl)cc1`, the “activity change, negative = inhibition” value was inactive: -8.57%.
With `Cc1c(NC(=O)Nc2ccc(Cl)c(C(F)(F)F)c2)c(=O)n(-c2ccccc2)n1C`, the “activity change, negative = inhibition” value is inactive: -6.26%.
As for `Fc1ccccc1N1CCN(c2ncnc3onc(-c4cccc(Cl)c4)c23)CC1`, the outcome was inactive.
`CCOc1ccc(OCC)c(-n2cnnn2)c1`: the “activity change, negative = inhibition” value was inactive: -4.42%.
For the molecule `Cc1ccc(Cl)cc1-n1ncc2c(NCCC3=CCCCC3)ncnc21`, the molecule was called inactive.
On to `COc1ccc(-n2c(SCC(=O)NC3CCCCC3)nc3c([nH]c4ccccc43)c2=O)cc1`, for which the call was inactive.
For `COc1ccc(-c2cc3c(=O)n(CC(=O)Nc4cc(C)ccc4C)ccn3n2)cc1`, the molecule was called inactive.
In the case of `Cc1cccn2c(=O)cc(COc3ccc(NC(=O)C(C)Oc4ccccc4)cc3)nc12` (stereo not given), the “activity change, negative = inhibition” value is inactive: 6.42%.
In the case of `NS(=O)(=O)c1ccc(NC(=O)CN2CCN(c3ccc(F)cc3)CC2)cc1`, the “activity change, negative = inhibition” value is inactive: 4.63%.
With `Cn1c(=O)c2c(-c3ccccc3Br)n(Cc3ccccc3)cc2n(C)c1=O`, the molecule was classed as inactive.
On to `CCCCNC(=O)c1cc(-c2ccc(Cl)c(Cl)c2)on1`, for which the “activity change, negative = inhibition” value is inactive: 71.1%.
Still for that read-out and setting: with `CCc1ccc(C2CC(=O)NC(NC(=O)c3ccc(C(C)(C)C)cc3)=N2)cc1` (stereo not given) the figure was inactive: 0.735%.
As to `Cc1c(-c2ccccc2)c(=O)oc2c(CN3CCCC3)c(O)ccc12`, the “activity change, negative = inhibition” value was inactive: 12.9%.
As to `Cn1c(=O)[nH]c(=O)c2c1nc(NCCO)n2CC(O)COc1ccccc1` (stereo not given), the “activity change, negative = inhibition” value is inactive: 2.33%.
Consider `CCOc1ccc(/C=C/c2nc(C#N)c(Nc3ccc(OCC)cc3)o2)cc1`, for which the molecule was classed as inactive.
Consider `O=C(CCCn1ccc2cc(S(=O)(=O)N3CCCC3)ccc21)NCc1ccc(Cl)cc1`, for which the “activity change, negative = inhibition” value is inactive: -23.5%.
For `CC1CC(=O)N(CC(=O)Nc2ccc(F)cc2F)c2ccccc2S1` (stereo not given), the molecule was classed as inactive.
`O=C(NCCc1ccc(Cl)cc1)c1ccc2c(c1)N(Cc1ccccc1F)C(=O)c1ccccc1S2(=O)=O`: the molecule was called inactive.
Consider `COc1ccc(NC(=O)Nc2cccc(-c3cn4cccnc4n3)c2)cc1`, for which the call was inactive.
The same measure, in the same setting: with `Cc1nc2ccn(Cc3ccccc3)c(=O)c2cc1C(=O)NCc1ccccc1F` the entry was “inactive”.
As for `COc1cccc(CNC(=O)CN2C(=O)COc3ccc(S(=O)(=O)N4CCCCCC4)cc32)c1`, the “activity change, negative = inhibition” value is inactive: 1.05%.
For `CC=CC[C@@H](C)C(=O)[C@H]1C(=O)N[C@@H](C(C)C)C(=O)N(C)CC(=O)N(C)[C@@H](CC(C)C)C(=O)N[C@@H](C(C)C)C(=O)N(C)[C@@H](CC(C)C)C(=O)N[C@@H](C)C(=O)N[C@H](C)C(=O)N(C)[C@@H](CC(C)C)C(=O)N(C)[C@@H](CC(C)C)C(=O)N(C)[C@@H](C(C)C)C(=O)N1C`, the “activity change, negative = inhibition” value was inactive: -11.6%.
